# Reference: the supplement of paper PMC8728848
# The other results are listed elsewhere or left out.
# Tests used:
# Experiment in all cases: glycan array binding signal (z-score within array); higher = stronger binding
# Conditions in all cases: glycan notation: IUPAC condensed, linker removed
# GalNAc3S(b1-4)GlcNAc3S = target: GalNAc3S(b1-4)GlcNAc3S
# Outline: (§1)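 Negative Z-scores can be read as non-binding. The Z-score is calculated within each array and then averaged across arrays of one protein sequence at different concentrations or buffers and across linkers. Arrays, 3228 in all, were curated from the Consortium for Functional Glycomics database and kept only where the protein sequence was available.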
# [1] = target: GalNAc3S(b1-4)[Fuc(a1-3)]GlcNAc
# Outline: as §1
# GalNAc4S6S(b1-4)GlcNAc = target: GalNAc4S6S(b1-4)GlcNAc
# Outline: as §1
# GalNAc6S(b1-4)GlcNAc = target: GalNAc6S(b1-4)GlcNAc
# Outline: as §1
# Glc(a1-4)Glc = target: Glc(a1-4)Glc
# Outline: as §1
# [2] = target: Glc(a1-4)Glc(a1-4)Glc(a1-4)Glc
# Outline: as §1
# Glc(a1-6)Glc(a1-6)Glc = target: Glc(a1-6)Glc(a1-6)Glc
# Outline: as §1
# [3] = target: Glc(a1-6)Glc(a1-6)Glc(a1-6)Glc
# Outline: as §1
# Glc(b1-4)Glc = target: Glc(b1-4)Glc
# Outline: as §1
# Glc(b1-6)Glc = target: Glc(b1-6)Glc
# Outline: as §1
# GlcA(b1-3)Gal = target: GlcA(b1-3)Gal
# Outline: as §1
# GlcA(b1-3)GlcNAc = target: GlcA(b1-3)GlcNAc
# Outline: as §1
# GlcA(b1-6)Gal = target: GlcA(b1-6)Gal
# Outline: as §1
# [4] = target: GlcA3S(b1-3)Gal(b1-4)GlcNAc(b1-2)Man
# Outline: as §1
# [5] = target: GlcA3S(b1-3)Gal(b1-4)GlcNAc(b1-3)Gal(b1-4)Glc
# Outline: as §1
# [6] = target: GlcNAc(a1-3)Gal(b1-4)GlcNAc
# Outline: as §1
# [7] = target: GlcNAc(a1-4)Gal(b1-3)GlcNAc
# Outline: as §1
# [8] = target: GlcNAc(a1-4)Gal(b1-4)GalNAc
# Outline: as §1
# [9] = target: GlcNAc(a1-4)Gal(b1-4)GlcNAc
# Outline: as §1
# [10] = target: GlcNAc(a1-4)Gal(b1-4)GlcNAc(b1-3)Gal(b1-4)Glc
# Outline: as §1
# [11] = target: GlcNAc(a1-4)Gal(b1-4)GlcNAc(b1-3)Gal(b1-4)GlcNAc
# Outline: as §1
# [12] = target: GlcNAc(a1-4)Gal(b1-4)GlcNAc(b1-3)Gal(b1-4)GlcNAc(b1-3)Gal(b1-4)GlcNAc
# Outline: as §1
# [13] = target: GlcNAc(a1-4)Gal(b1-4)GlcNAc(b1-3)Gal(b1-4)[Fuc(a1-3)]GlcNAc(b1-3)Gal(b1-4)[Fuc(a1-3)]GlcNAc
# Outline: as §1
# [14] = target: GlcNAc(a1-6)Gal(b1-4)GlcNAc
# Outline: as §1
# [15] = target: GlcNAc(b1-2)Gal(b1-3)GalNAc
# Outline: as §1
# [16] = target: GlcNAc(b1-2)Man(a1-3)[GlcNAc(b1-2)Man(a1-6)]Man(b1-4)GlcNAc(b1-4)GlcNAc
# Outline: as §1
# [17] = target: GlcNAc(b1-2)Man(a1-3)[GlcNAc(b1-2)Man(a1-6)]Man(b1-4)GlcNAc(b1-4)[Fuc(a1-6)]GlcNAc
# Outline: as §1
# [18] = target: GlcNAc(b1-2)Man(a1-3)[GlcNAc(b1-4)][GlcNAc(b1-2)Man(a1-6)]Man(b1-4)GlcNAc(b1-4)GlcNAc
# Outline: as §1
# [19] = target: GlcNAc(b1-2)Man(a1-3)[GlcNAc(b1-4)][GlcNAc(b1-2)Man(a1-6)]Man(b1-4)GlcNAc(b1-4)[Fuc(a1-6)]GlcNAc
# Outline: as §1
# [20] = target: GlcNAc(b1-2)[GlcNAc(b1-4)]Man(a1-3)[GlcNAc(b1-2)Man(a1-6)]Man(b1-4)GlcNAc(b1-4)GlcNAc
# Outline: as §1
# [21] = target: GlcNAc(b1-2)[GlcNAc(b1-4)]Man(a1-3)[GlcNAc(b1-4)][GlcNAc(b1-2)Man(a1-6)]Man(b1-4)GlcNAc(b1-4)GlcNAc
# Outline: as §1
# [22] = target: GlcNAc(b1-2)[GlcNAc(b1-4)]Man(a1-3)[GlcNAc(b1-4)][GlcNAc(b1-2)[GlcNAc(b1-6)]Man(a1-6)]Man(b1-4)GlcNAc(b1-4)GlcNAc
# Outline: as §1
# [23] = target: GlcNAc(b1-2)[GlcNAc(b1-4)]Man(a1-3)[GlcNAc(b1-4)][GlcNAc(b1-2)[GlcNAc(b1-6)]Man(a1-6)]Man(b1-4)GlcNAc(b1-4)[Fuc(a1-6)]GlcNAc
# Outline: as §1
# [24] = target: GlcNAc(b1-2)[GlcNAc(b1-6)]Man(a1-6)[GlcNAc(b1-2)Man(a1-3)]Man(b1-4)GlcNAc(b1-4)GlcNAc
# Outline: as §1
# [25] = target: GlcNAc(b1-2)[GlcNAc(b1-6)]Man(a1-6)[GlcNAc(b1-2)Man(a1-3)]Man(b1-4)GlcNAc(b1-4)[Fuc(a1-6)]GlcNAc
# Outline: as §1
# [26] = target: GlcNAc(b1-2)[GlcNAc(b1-6)]Man(a1-6)[GlcNAc(b1-4)][GlcNAc(b1-2)Man(a1-3)]Man(b1-4)GlcNAc(b1-4)GlcNAc
# Outline: as §1
# GlcNAc(b1-3)Fuc = target: GlcNAc(b1-3)Fuc
# Outline: as §1
# GlcNAc(b1-3)Gal = target: GlcNAc(b1-3)Gal
# Outline: as §1
# [27] = target: GlcNAc(b1-3)Gal(b1-3)GalNAc
# Outline: as §1
# GlcNAc(b1-3)Gal(b1-4)Glc = target: GlcNAc(b1-3)Gal(b1-4)Glc
# Outline: as §1
# [28] = target: GlcNAc(b1-3)Gal(b1-4)GlcNAc
# Outline: as §1
# [29] = target: GlcNAc(b1-3)Gal(b1-4)GlcNAc(b1-2)Man(a1-3)[GlcNAc(b1-3)Gal(b1-4)GlcNAc(b1-2)Man(a1-6)]Man(b1-4)GlcNAc(b1-4)GlcNAc
# Outline: as §1
# [30] = target: GlcNAc(b1-3)Gal(b1-4)GlcNAc(b1-2)Man(a1-3)[GlcNAc(b1-3)Gal(b1-4)GlcNAc(b1-2)Man(a1-6)]Man(b1-4)GlcNAc(b1-4)[Fuc(a1-6)]GlcNAc
# Outline: as §1
# [31] = target: GlcNAc(b1-3)Gal(b1-4)GlcNAc(b1-2)[GlcNAc(b1-3)Gal(b1-4)GlcNAc(b1-6)]Man(a1-6)[GlcNAc(b1-3)Gal(b1-4)GlcNAc(b1-2)Man(a1-3)]Man(b1-4)GlcNAc(b1-4)GlcNAc
# Outline: as §1
# [32] = target: GlcNAc(b1-3)Gal(b1-4)GlcNAc(b1-3)Gal(b1-4)GlcNAc
# Outline: as §1
binder,measurement,setting,value
"BDCA-2 (Homo sapiens), Q8WTT0 (protein) MVPEEEPQDREKGLWWFQLKVWSMAVVSILLLSVCFTVSSVVPHNFMYSKTVKRLSKLREYQQYHPSLTCVMEGKDIEDWSCCPTPWTSFQSSCYFISTGMQSWTKSQKNCSVMGADLVVINTREEQDFIIQNLKRNSSYFLGLSDPGGRRHWQWVDQTPYNENVTFWHSGEPNNLDERCAIINFRSSEEWGWNDIHCHVPQKSICKMKKIYI",glycan array binding signal (z-score),GalNAc3S(b1-4)GlcNAc3S,-0.175
same,glycan array binding signal (z-score),[1],-0.158
same,glycan array binding signal (z-score),GalNAc4S6S(b1-4)GlcNAc,-0.173
same,glycan array binding signal (z-score),GalNAc6S(b1-4)GlcNAc,-0.174
same,glycan array binding signal (z-score),Glc(a1-4)Glc,-0.134
same,glycan array binding signal (z-score),[2],-0.144
same,glycan array binding signal (z-score),Glc(a1-6)Glc(a1-6)Glc,-0.319
same,glycan array binding signal (z-score),[3],-0.081
same,glycan array binding signal (z-score),Glc(b1-4)Glc,-0.167
same,glycan array binding signal (z-score),Glc(b1-6)Glc,-0.098
same,glycan array binding signal (z-score),GlcA(b1-3)Gal,0.118
same,glycan array binding signal (z-score),GlcA(b1-3)GlcNAc,-0.153
same,glycan array binding signal (z-score),GlcA(b1-6)Gal,-0.122
same,glycan array binding signal (z-score),[4],-0.151
same,glycan array binding signal (z-score),[5],-0.189
same,glycan array binding signal (z-score),[6],-0.091
same,glycan array binding signal (z-score),[7],-0.179
same,glycan array binding signal (z-score),[8],-0.161
same,glycan array binding signal (z-score),[9],-0.186
same,glycan array binding signal (z-score),[10],-0.181
same,glycan array binding signal (z-score),[11],-0.173
same,glycan array binding signal (z-score),[12],-0.176
same,glycan array binding signal (z-score),[13],-0.087
same,glycan array binding signal (z-score),[14],0.006
same,glycan array binding signal (z-score),[15],0.091
same,glycan array binding signal (z-score),[16],0.846
same,glycan array binding signal (z-score),[17],-0.075
same,glycan array binding signal (z-score),[18],-0.129
same,glycan array binding signal (z-score),[19],-0.093
same,glycan array binding signal (z-score),[20],-0.125
same,glycan array binding signal (z-score),[21],-0.172
same,glycan array binding signal (z-score),[22],-0.186
same,glycan array binding signal (z-score),[23],-0.191
same,glycan array binding signal (z-score),[24],0.342
same,glycan array binding signal (z-score),[25],-0.072
same,glycan array binding signal (z-score),[26],-0.167
same,glycan array binding signal (z-score),GlcNAc(b1-3)Fuc,-0.167
same,glycan array binding signal (z-score),GlcNAc(b1-3)Gal,-0.168
same,glycan array binding signal (z-score),[27],-0.224
same,glycan array binding signal (z-score),GlcNAc(b1-3)Gal(b1-4)Glc,0.173
same,glycan array binding signal (z-score),[28],0.016
same,glycan array binding signal (z-score),[29],-0.169
same,glycan array binding signal (z-score),[30],-0.145
same,glycan array binding signal (z-score),[31],-0.191
same,glycan array binding signal (z-score),[32],0.182
